# Measured values: article PMC12136788
# The list shows a part of the results.
# T1: UNK ZnF1-3 (human, UniProt Q9C0B0 31-174)
# T1 sequence: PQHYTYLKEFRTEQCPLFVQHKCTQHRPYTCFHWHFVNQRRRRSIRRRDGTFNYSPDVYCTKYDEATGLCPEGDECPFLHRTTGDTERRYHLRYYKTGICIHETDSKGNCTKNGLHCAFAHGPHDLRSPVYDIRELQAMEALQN
# B1: chr9:96978117:96978118:-_ENSMUSG00000032449_ENSMUST00000035024|mus_mus|FALSE|FALSE (ssRNA)
# RNA: GGGAGUUCUACAGUCCGACGAUCUACAUAACAAUGUUAAAGAAAUUAACAUGAAUUCUCUCCUGACCCUUACCCCCUCAAAAGGCCACAAAGUGCAUUCACAAAGUCAUUCUGAAGAGAAAGCCAUUGCACAAAGUGUAAAGUCAACAGAGGAUUGAGCAUCA
# B2: chr16:36023280:36023281:+_ENSMUSG00000022905_ENSMUST00000004054|mus_mus|FALSE|FALSE (ssRNA)
# RNA: GGGAGUUCUACAGUCCGACGAUCUGUCUGAAUAUCAUCCCCUGUGACAAUGUUUCCCACAGCCCGCAAAGCAGGAGAAACUACUUUAUAGUCAUUAUGCAUCAGAAGUUCCACAAGCCUCCUGCAGACUCCUGCAUCGAUGACCAACAGAGGAUUGAGCAUCA
# B3: 36835227_36835347_1850_3pUTR_ENSMUSG00000029192_ENSMUST00000171385|mouse|control|control (ssRNA)
# RNA: GGGAGUUCUACAGUCCGACGAUCUGAUAGGGAGAUUUAAAACACACCUUUCAUCUCUGGAAAGAUUAUCUCAGUAACUAAGUAAUUCCUUUCUUACAAGCAUAUGGGCCAAAAACAACUCUGAGGUUUCCUAAUAACAUUUCUCAACAGAGGAUUGAGCAUCA
# B4: 92625623_92627572_2463_3pUTR_ENSG00000165934_ENST00000298875|human|control|control (ssRNA)
# RNA: GGGAGUUCUACAGUCCGACGAUCAUUGUUGCAAACAAGUACACCUCCUACAAAUUCAGCUUGAAUCCCCUCCCGUAAGAGAACUUGCUUGAAGUCUGACAGCCUUGGUUCAUUCAUAAAAACUGACUGAUGUCCAGGAACCUCCAACAGAGGAUUGAGCAUCA
# B5: chr11:75570464:75570465:+_ENSMUSG00000020849_ENSMUST00000067664|mus_hu|motif|central (ssRNA)
# RNA: GGGAGUUCUACAGUCCGACGAUCACGGUCAGGGGAAUUAAGAAUUUCGUAGUAGAAUACGGAAAAAUUGAGAGCAAGACCGGAGCGAAUAGGAUGCGUUGGUGGAAGUUCUGUCAUUGCAAUAUCACUAGCAGCUUUAUAAGCCAACAGAGGAUUGAGCAUCA
# B6: chr17:65337135:65337136:-_ENSG00000197170_ENST00000584008|hu_mus|motif|central (ssRNA)
# RNA: GGGAGUUCUACAGUCCGACGAUCCUGGAAGUUGAUGACUCCAGCCAACCUGUCUACUUUAGCAAAGAUGGUCUUGUUAACGACGGGAUUCGAGAGGAAAGCCUCUGACUCAUCCACAGAGAGAUCCAGAAGUUGUGCCAUCCUCAACAGAGGAUUGAGCAUCA
# B7: chr2:47387792:47387793:-_ENSG00000143933_ENST00000272298|hu_mus|FALSE|FALSE (ssRNA)
# RNA: GGGAGUUCUACAGUCCGACGAUCUAAGGACAAUGACAGUAAGAUAAGGGAAGAAAACAUGGAGGAAUGAAGUCCUAAUUACUAUACAUGCAUAUUUUUUGACAGUAGGGGGGGGGAACCUUUUACAGAUAAGUUACAAACAAACAACAGAGGAUUGAGCAUCA
# B8: chrX:20248820:20248821:+_ENSMUSG00000001924_ENSMUST00000001989|mus_mus|mus_mus_mus_hu_True|48_98 (ssRNA)
# RNA: GGGAGUUCUACAGUCCGACGAUCGGCGAAGUCCGUCAUCACAAAGUCAGGUUCUGCCAGUGAGGCCACCAAGGAUUUAAAGCUAAUCUUUUUCGGUACUUUGACCUGACUGACGAUGCCUCCACGGAUGUAGUCGGAGAAGUUCAACAGAGGAUUGAGCAUCA
# B9: chr5:179044645:179044646:-_ENSG00000169045_ENST00000393432|hu_mus|FALSE|FALSE (ssRNA)
# RNA: GGGAGUUCUACAGUCCGACGAUCUACUCUGCCAUCAGGUCCAAUCUCAAUAUGUACUCUCACAGGGUUGAGUGGUGAAAAAAAAUUAUAAAUGUCAUUCUCAGUAGCUCUGUAUGGUAAUCCCCGCAUGUGUACACAGUGUCCCAACAGAGGAUUGAGCAUCA
# B10: chr4:25749455:25749456:-_ENSG00000091490_ENST00000264868|hu_hu|hu_hu_hu_mus_False|18_88 (ssRNA)
# RNA: GGGAGUUCUACAGUCCGACGAUCGCACUAUGACCUCUAGAAAAAUCAUUCAAGGAGAAAAAUGUAAACCAAUGUACAAUGUUAUCGCCUUCCCUGUGUGUGGAGUGUUUGUCUCAAUAUUUCAAGGAGCUGCUGGAUUUGGGACAACAGAGGAUUGAGCAUCA
# B11: chr7:151048522:151048523:+_ENSG00000013374_ENST00000566856|hu_mus|hu_hu_hu_mus_True|1_88 (ssRNA)
# RNA: GGGAGUUCUACAGUCCGACGAUCCUGUUUCUUAUUUAUUACGAUCUUGAUAUAAUUUUCUUGAAAUCCGAAAGUUUCAGCUAUUUGACACCUCAGGUCUCUACCAGUGACAUGCAAGCGGGUCUCCAACAAGCUUUUCCUAUCCAACAGAGGAUUGAGCAUCA
# B12: chr2:47387792:47387793:-_ENSG00000143933_ENST00000272298|hu_hu|hu_hu_hu_mus_True|8_38 (ssRNA)
# RNA: GGGAGUUCUACAGUCCGACGAUCUAAGGACAAUGACAGUAAGAUAAGGGAAGAAAACAUGGAGGAAUGAAGUCCUAAUUACUAUACAUGCAUAUUUUUUUGACAGUGGGGGGGGGAACCUUUUACAUAAGUUACAAAAACAAACAACAGAGGAUUGAGCAUCA
# B13: 29593529_29593649_643_3pUTR_ENSMUSG00000020458_ENSMUST00000102843|mouse|control|control (ssRNA)
# RNA: GGGAGUUCUACAGUCCGACGAUCGGGGGCGCGGCGGGCUCCGCUAGGGGGCUCGCGCCGGCUGGCGCCGGAGGCCGCGCUGGAGGCUCGUCGUCCUCCGGGAGCUUGGAGGGCAGGACUGCGGCAGCGGGCGGCAGGGAUGGCCAACAGAGGAUUGAGCAUCA
# B14: 156865943_156866063_2208_CDS_ENSMUSG00000055485_ENSMUST00000069098|mouse|control|control (ssRNA)
# RNA: GGGAGUUCUACAGUCCGACGAUCGCACAGCCGGGCGGCGUGGGGCUCCAGCGUCUCACCCAGAGGGGCAGGCACGCACUGCGCAGAGUCCCCAGCCUCAGCGUCCGUCUCCAGCAUGGGGCGUGUGCUCUGGCAGGAGGCCAGCAACAGAGGAUUGAGCAUCA
# Biological target: T1, UNK ZnF1-3
# Assay: nsRBNS (natural sequence RNA bind-n-seq); RBNS binding buffer (assumed for nsRBNS): 25 mM Tris pH 7.5, 150 mM KCl, 3 mM MgCl2, 0.01% Triton X-100, 500 ug/ml BSA, 20 U/ml SUPERase-In, 4 C; UNK is unkempt and MSI1 is Musashi-1; names of the RNAs are library labels; protein concentration not given here; high values mean tight binding
row,Binder,binding signal [enrichment R]
1,B1,1.31
2,B2,1.3
3,B3,0.894
4,B4,0.983
5,B5,1.82
6,B6,0.648
7,B7,2.02
8,B8,0.793
9,B9,2.18
10,B10,1.5
11,B11,0.96
12,B12,2.26
13,B13,0.992
14,B14,0.722
